Measurements from PubChem BioAssay (NCATS).
This list was built around the results that the source calls inconclusive (neither active nor inactive); the mix of calls is not that of the screen. Potencies beside an inconclusive call are fits to weak or partial responses and may not hold up. Active and inactive are the calls of the source. Calls come from the whole dose curve; as a rule, active = well fitted inhibition curve with a large enough effect; inconclusive = small, poorly fitted or top-dose-only effect; inactive = no such curve, though single readings can be large or run the other way.

Assay: BET inhibitor-based combinations targeting novel dependencies in MECOM-rearranged (r) AML: HNT-34 cell line (AID 2202234); note: nearly all actives have a fitted effect of over 35% in size;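 for viability (% of control): plate controls were vehicle wells for no effect and cell-free wells for full effect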
Conditions: HNT-34 AML viability, CellTiter-Glo luminescence, 48 h; series mostly up to 46 µM; viability (% of control): at the top concentration
Procedure, shortened: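 Each compound is tested in an 11-point concentration series against 500 seeded cells/well for 48 hr. The luminescent viability signal is normalized to DMSO and blank wells, then reduced to AUC and a cell-line-centred Z-AUC.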
Potency is the fitted concentration of half-maximal effect; tags give direction and shape of the fitted curve.

SMILES | Potency | viability (% of control)
CCc1cc(Nc2nccc(-c3c(-c4ccc(OC)c(C(=O)Nc5c(F)cccc5F)c4)nc4ccccn34)n2)c(OC)cc1N1CCC(N2CCN(S(C)(=O)=O)CC2)CC1 | inconclusive: 13.2 µM [inhibitor, partial curve, poor fit] | –
COc1cccc2c1C(=O)c1c(O)c3c(c(O)c1C2=O)C[C@@](O)(C(=O)CO)C[C@@H]3O[C@H]1C[C@H](N)[C@@H](O)[C@H](C)O1 | active: 0.263 µM | –
O=C1CC(c2c[nH]c3ccc(F)cc23)C(=O)N1 (centres undefined) | – | inactive: 90.2%
CCCCC[C@H](O)/C=C/[C@H]1[C@H](O)CC(=O)[C@@H]1CCCCCCC(=O)O | active: 16.6 µM | –
CNC(=O)[C@H](Cc1c[nH]c2ccccc12)NC(=O)[C@@H](CC(=O)NO)CC(C)C | inconclusive: 20.9 µM [inhibitor, partial curve, poor fit] | –
COC(=O)[C@H](c1ccccc1Cl)N1CCc2sccc2C1 | – | inactive: 93.3%
CCC(C)CNCC(=O)N1CCc2sccc2C1c1cccc(C)n1 (centres undefined) | inconclusive: 26.3 µM [inhibitor, partial curve, poor fit] | –
COc1cc(NC(=O)c2ccc(-c3ccc(Cl)cc3)o2)cc(OC)c1 | – | inactive: 106%
CCCCC(=O)OCC(=O)[C@]1(O)Cc2c(O)c3c(c(O)c2[C@@H](O[C@H]2C[C@H](NC(=O)C(F)(F)F)[C@H](O)[C@H](C)O2)C1)C(=O)c1c(OC)cccc1C3=O | active: 1.86 µM | –
O=C(O)C1=CC(O)C(O)[C@H](O)C1 (some centres undefined) | – | inactive: 99.6%
O=C(Nc1cccc(C(F)(F)F)c1)c1cccc2cc(Oc3cc(CO)ncn3)ccc12 | inconclusive: 9.34 µM [inhibitor, partial curve] | –
COc1c(N2C[C@@H]3CCCN[C@H]3C2)c(F)cc2c(=O)c(C(=O)O)cn(C3CC3)c12 | – | inactive: 84.2%
CCOC(=O)c1ccnc(CNCC(=O)N(CC)CCN(C)C)c1 | inconclusive: 33.2 µM [inhibitor, single point] | –
CC[C@H](C)C(=O)O[C@H]1C[C@H](O)C=C2C=C[C@H](C)[C@H](CC[C@@H](O)C[C@@H](O)CC(=O)O)[C@H]21 | – | inactive: 107%
Cc1ccc(/C=N/NC(=O)c2ccccc2Oc2ccccc2)o1 | inconclusive: 0.417 µM [inhibitor, full curve, poor fit] | –
C=C1c2cccc(O)c2C(O)=C2C(=O)[C@@]3(O)C(O)=C(C(N)=O)C(=O)[C@@H](N(C)C)[C@@H]3[C@@H](O)[C@H]12 | inconclusive: 26.3 µM [inhibitor, partial curve] | –
N=C(N)c1ccc(OCCCCCOc2ccc(C(=N)N)cc2)cc1 | active: 26.3 µM | –

SMILES | Potency | viability (% of control)
C#Cc1cccc(Nc2ncnc3cc4c(cc23)OCCOCCOCCO4)c1 | active: 18.6 µM | –
CC[C@@H]1C(=O)N(C)c2cnc(Nc3ccc(C(=O)NC4CCN(C)CC4)cc3OC)nc2N1C1CCCC1 | inconclusive: 0.0742 µM [inhibitor, full curve] | –
O=C1c2ccccc2-[n+]2ccc3c([nH]c4ccccc43)c21 | active: 1.86 µM | –
CC(=O)CC(c1ccccc1)c1c(O)c2ccccc2oc1=O (centres undefined) | – | inactive: 89.8%
CC1=C(c2ccc(O)cc2)[C@H](c2ccc(OCCN3CCCCC3)cc2)Oc2cc(O)ccc21 | inconclusive: 33.2 µM [inhibitor, single point] | –
Cn1c(NCCN(CCO)CCCc2ccc([N+](=O)[O-])cc2)cc(=O)n(C)c1=O | – | inactive: 94.1%
CCCNC(=O)c1cn2ncnc(Nc3cc(C(=O)NC4CC4)ccc3C)c2c1C | – | inactive: 108%
O=C(O)Cn1nnc(-c2cc(N3CCC(Oc4cc(F)ccc4Br)CC3)no2)n1 | – | inactive: 109%
CN(C)c1cc(NC(=O)CNC(C)(C)C)c(O)c2c1C[C@H]1C[C@H]3[C@H](N(C)C)C(=O)C(C(N)=O)=C(O)[C@]3(O)C(=O)C1=C2O | – | inactive: 84.5%
COc1nc(C)nc(Cl)c1NC1=NCCN1 | – | inactive: 88.3%
O=C(O)c1ccccc1-c1ccc(/C=c2\sc3nc4cc(Br)cnc4n3c2=O)o1 | inconclusive: 18.2 µM [inhibitor, partial curve, poor fit] | –
CN1CCC(=C2c3ccccc3CC(=O)c3sccc32)CC1 | inconclusive: 26.3 µM [inhibitor, single point] | –
CCC[C@H](NC(=O)[C@@H]1[C@H]2CCC[C@H]2CN1C(=O)[C@@H](NC(=O)[C@@H](NC(=O)c1cnccn1)C1CCCCC1)C(C)(C)C)C(=O)C(=O)NC1CC1 | inconclusive: 0.059 µM [inhibitor, full curve] | –
COc1ccc(-c2oc3c(CC=C(C)C)c(OC4O[C@H](CO)[C@@H](O)[C@H](O)[C@H]4O)cc(O)c3c(=O)c2OC2O[C@@H](C)[C@H](O)[C@@H](O)[C@H]2O)cc1 (some centres undefined) | – | inactive: 109%
OC[C@H]1O[C@@H](S[C@@H]2O[C@H](CO)[C@H](O)[C@H](n3cc(-c4cccc(F)c4)nn3)[C@H]2O)[C@H](O)[C@@H](n2cc(-c3cccc(F)c3)nn2)[C@H]1O | – | inactive: 111%
CC(=O)OCCN1C(=O)c2c(C)nc3ccc(S(=O)(=O)N4CCOCC4)cc3c2C1=O | – | inactive: 107%
CC(C)Cc1ccc([C@@H](C)C(=O)NS(C)(=O)=O)cc1 | – | inactive: 106%
